The other results are listed elsewhere or left out.

The experiment has as its system PfHDP1 homeodomain (GST-tagged). Nature of the experiment: gcPBM binding intensity (ln(normalized median fluorescence intensity)); higher = stronger DNA binding. The method, boiled down:
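Probes on an Agilent 4 × 180k array were primer-extended, double-stranded and 36 bp long, taken from intergenic genomic regions, with negative controls added. GST-tagged P. falciparum DNA-binding domains from E. coli, about 25 μg on average, were applied to the array for 1 h in 1× PBS containing 1% milk, 0.2 mg/ml BSA, 0.5% salmon testes DNA and 0.03% Triton X-100. Binding intensity, obtained after Alexa488 anti-GST antibody detection and a 488 nm scan, is the highest Masliner-normalised natural-log median intensity across replicate spots of either probe orientation.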
As to “ATATCTTATTTTCCTTGTACTTATTTCATAATTACA [XGTACX_site3894]”, the “gcPBM binding intensity (ln)” value amounted to 6.81.
To “TATTAAATATTGTAATGTACATATATAATATAATAT [XGTACX_site1809]” belongs 6.63.
As for “AATGTCATGATACATACACACACATACACATACACA [CACACA_site8665]”, the figure is 6.98.
With “TAAATATGTATAAATTGTACAAAATATATGAATAGT [XGTACX_site5659]”, the “gcPBM binding intensity (ln)” value was found to be 6.94.
Consider “AATTTCCCATATTACACACATACTATGATATATAAA [CACACA_site3834]”, for which the “gcPBM binding intensity (ln)” value was 6.97.
To “CAATAAACCATTTTTTGTACATAAAAATAGGTATTG [XGTACX_site1892]” belongs 6.29; to “TTTTTTTTTTTAAATTGTACTTATTTTATATTATAT [XGTACX_site1077]”, 6.08.
On to “AGAAAAATTATATATACACACTTATATTTATATATA [CACACA_site5555]”, for which the “gcPBM binding intensity (ln)” value is 6.3.
As for “TACGTTCTGATATATACACACCTGGTATTAATTATG [CACACA_site7113]”, the figure is 6.76.
For the sequence “TATTATATTTATATTTGTACTTAAAATATTATACAC [XGTACX_site2881]”, the “gcPBM binding intensity (ln)” value was determined as 6.42.
For the sequence “AGTATACGCAAACACACACACACAAAAAAAAAAAAA [CACACA_site426]”, the “gcPBM binding intensity (ln)” value was found to be 6.52.
As for “AAATAAGAAAATCATAGTACATAGGAATAGAAGAAC [XGTACX_site3135]”, the figure is 7.49; as for “TTAAAAAAAGAAAAAAAAAAAAAAAAAAAAAAACAT [CACACA_negctrl_site475]”, 6.21.
To “TATAAAAATATTTCTACACACATTAATATTTATATA [CACACA_site6661]” belongs 6.66.
As for “TATTATATTCTGCTTACACACATATATATATATATA [CACACA_site3060]”, the figure is 9.28.
Regarding “GTTCTAAATATTATTGCATGTTGCACGTTTCTCTGT [TGCATGCA_site159]”, the “gcPBM binding intensity (ln)” value came out at 8.26.
As for “GTGATAATTGCTTGGTGTACCCACATATATATATAT [XGTACX_site1636]”, the figure is 9.06; as for “CATACACCCATACATACACACATACATATATATATA [CACACA_site8591]”, 8.98; as for “ATATAATGTTTCACATGTACAAACAACACAAAAAAA [XGTACX_site1899]”, 6.99.
As for “AATTATGAAAAATCAAGTACAAACAAAATCATAATT [XGTACX_site5665]”, the figure is 6.83; as for “AAAGAGAAATTTAAATGTACATTTGTTCTAAGTGTA [XGTACX_site3602]”, 6.34; as for “AAAAGATATATTATATGTACTAATTATATGATAAAT [XGTACX_site4192]”, 6.32.
To “TATAATAATAATAATAGTACGTATTATTAAAAAACT [XGTACX_site10]” belongs 6.58; to “ATATTACACATATATGCACACATTGTAGTTATTTAT [CACACA_site8843]”, 8.92.
On to “CAATTACAAAAGAAATGTACTCGTAATAAATAAATA [XGTACX_site1126]”, for which the “gcPBM binding intensity (ln)” value was found to be 6.67.
As for “TGAAATTTTTATACATGTACAAAATTAAATATAACA [XGTACX_site7324]”, the figure is 6.45; as for “TTTGTTCATATTATTGTGCACTTAAACGTAACAAAA [GTGCAC_site9505]”, 10.1.
To “ACCCTATATGTAACTACACACCGCATATTGTTTACT [CACACA_site3071]” belongs 7.22; to “TTTATATTCTTAAGTGTGCACTATATATATATATAT [GTGCAC_site9719]”, 10.5; to “AATGTAGCATTTTATCGTACACTTAATACAAAAAAG [XGTACX_site6214]”, 6.56.
As for “ATGTATGTATATACTTGTACATATTCATATTAGTAT [XGTACX_site1118]”, the figure is 6.26; as for “TAATAAGTAAAAAAATGTACCCGTTAGGTTTAATAA [XGTACX_site638]”, 6.01; as for “AAAATAATATTTAATACACACACCAGTTCTGCAAAT [CACACA_site3736]”, 7.06.
As for “ACAAAAAGGTAATTTACACACTGCATATAGGAATAA [CACACA_site2929]”, the “gcPBM binding intensity (ln)” value amounted to 6.92.
For the sequence “AGAAATATATATATATATATATGTGACAATATTTGT [TGCATGCA_negctrl_site282]”, the “gcPBM binding intensity (ln)” value was found to be 7.02.
In the case of “TTTTTCTCTCTCTTATTATACAACAACAAAAAAAAA [GTGCAC_negctrl_site178]”, the “gcPBM binding intensity (ln)” value was found to be 6.41.
Turning to “TTTTTTTATTTTATTTTATTATCTTATGTATCACAA [CACACA_negctrl_site1755]”, the “gcPBM binding intensity (ln)” value turned out to be 6.48.
On to “AAAAATAAAATATATACATGCATATACATATTATAT [TGCATGCA_site668]”, for which the “gcPBM binding intensity (ln)” value was found to be 6.31.
As for “TGTTATATTTAATATAGTACATATTATTTTATATAT [XGTACX_site70]”, the figure is 6.42; as for “TATTCTATATTTCTATTTAGAAAACATCCCAGTGTG [GTGCAC_negctrl_site184]”, 6.26; as for “ATGTATATAATAAGAACACACATATATTTAATTTAA [CACACA_site2941]”, 6.16.
On to “ATACATATATACATACGTACTTATATACATATGTGC [XGTACX_site5268]”, for which the “gcPBM binding intensity (ln)” value stood at 6.49.
To “AGAAAATTAAAAAGAACACACAAATATATATAGAAT [CACACA_site3592]” belongs 6.91.
As for “ATTTATATGCACCATTGTACGTTTTATAAAGTTTGG [XGTACX_site3755]”, the figure is 10.5.

The values above are taken from the supplement of paper PMC11417369.
